{"source": "patent US20230348609A1", "key": {"[1]": {"molecular_target": "human CD40, full-length, on cells (human) (UniProt P25942)", "assay": "FACS (MFI) on Raji cells, four-parameter fit"}, "[2]": {"molecular_target": "human CD40, full-length, on cells (human) (UniProt P25942)", "assay": "FACS (MFI) on W352-CHOK1.hPro1.A7 cells expressing human CD40, four-parameter fit"}, "[3]": {"molecular_target": "human CD40, full-length, on cells (human) (UniProt P25942)", "assay": "FACS (MFI) on A431 cells, four-parameter fit"}, "[4]": {"molecular_target": "human CD40, full-length, on cells (human) (UniProt P25942)", "assay": "cell-based or functional assay"}, "[5]": {"molecular_target": "W352-cynoPro1.ECD.His (cynomolgus monkey) (UniProt G7PG38)", "assay": "SPR, Biacore 8K; antibody captured by goat anti-human Fc; analyte W352-cynoPro1.ECD.His"}, "[6]": {"molecular_target": "W352-hPro1.ECD.His (human) (UniProt P25942)", "assay": "SPR, ProteOn XPR36; antibody captured by goat anti-human Fc; analyte W352-hPro1.ECD.His; 1:1 model"}, "[7]": {"molecular_target": "cynomolgus monkey CD40 on transiently transfected 293F cells (cynomolgus monkey) (UniProt G7PG38)", "assay": "FACS (MFI) on 293F cells transiently transfected with cynomolgus monkey CD40, four-parameter fit"}}}
{"binder": "WBP352-BMK4.hIgG2K (antibody, INN chains, looked up, V domains shown, IgG2 kappa) VH: [letters of about 100 residues omitted]DQPLGYCTNGVCSYFDYWGQGTLVTVSS VL: DIQMTQSPSSVSASVGDRVTITCRASQGIYSWLAWYQQKPGKAPNLLIYTASTLQSGVPSRFSGSGSGTDFTLTISSLQPEDFATYYCQQANIFPLTFGGGTKVEIK", "values": [{"measurement": "EC50", "setting": "[1]", "result": 1.7, "unit": "nM"}, {"measurement": "EC50", "setting": "[2]", "result": 4.3, "unit": "nM"}, {"measurement": "EC50", "setting": "[3]", "result": 1.4, "unit": "nM"}, {"measurement": "EC20, B cell proliferation", "setting": "[4]", "result": 0.0055, "unit": "nM"}, {"measurement": "EC20, CD54 expression, DC activation assay", "setting": "[4]", "result": 0.26, "unit": "nM"}, {"measurement": "EC20, CD80 expression, DC activation assay", "setting": "[4]", "result": 0.49, "unit": "nM"}, {"measurement": "EC20, CD83 expression, DC activation assay", "setting": "[4]", "result": 0.14, "unit": "nM"}, {"measurement": "EC20, IL-12p40 release, DC activation assay", "setting": "[4]", "result": 0.69, "unit": "nM"}, {"measurement": "EC20, NFκB reporter assay, W352-Ramos.NFκBRE.luc", "setting": "[4]", "result": 0.087, "unit": "nM"}, {"measurement": "EC20, NFκB reporter assay, W352-U937.hPro1.NFκBRE.luc", "setting": "[4]", "result": 0.21, "unit": "nM"}, {"measurement": "EC50, B cell proliferation", "setting": "[4]", "result": 0.16, "unit": "nM"}, {"measurement": "EC50, CD80 expression, DC activation assay", "setting": "[4]", "result": 0.88, "unit": "nM"}, {"measurement": "EC50, CD83 expression, DC activation assay", "setting": "[4]", "result": 0.24, "unit": "nM"}, {"measurement": "EC50, CD86 expression, DC activation assay", "setting": "[4]", "result": 0.88, "unit": "nM"}, {"measurement": "EC50, IL-12p40 release, DC activation assay", "setting": "[4]", "result": 1.2, "unit": "nM"}, {"measurement": "EC50, NFκB reporter assay, W352-Ramos.NFκBRE.luc", "setting": "[4]", "result": 0.16, "unit": "nM"}, {"measurement": "EC50, NFκB reporter assay, W352-U937.hPro1.NFκBRE.luc", "setting": "[4]", "result": 0.81, "unit": "nM"}, {"measurement": "EC90, B cell proliferation", "setting": "[4]", "result": 0.89, "unit": "nM"}, {"measurement": "EC90, CD54 expression, DC activation assay", "setting": "[4]", "result": 2.4, "unit": "nM"}, {"measurement": "EC90, CD80 expression, DC activation assay", "setting": "[4]", "result": 2.2, "unit": "nM"}, {"measurement": "EC90, CD83 expression, DC activation assay", "setting": "[4]", "result": 0.57, "unit": "nM"}, {"measurement": "EC90, CD86 expression, DC activation assay", "setting": "[4]", "result": 2.3, "unit": "nM"}, {"measurement": "EC90, IL-12p40 release, DC activation assay", "setting": "[4]", "result": 2.6, "unit": "nM"}, {"measurement": "EC90, NFκB reporter assay, W352-Ramos.NFκBRE.luc", "setting": "[4]", "result": 0.45, "unit": "nM"}, {"measurement": "EC90, NFκB reporter assay, W352-U937.hPro1.NFκBRE.luc", "setting": "[4]", "result": 7.2, "unit": "nM"}, {"measurement": "Kd", "setting": "[5]", "result": 6.94, "unit": "nM"}, {"measurement": "koff", "setting": "[5]", "result": 0.00107, "unit": "s⁻¹"}, {"measurement": "kon", "setting": "[5]", "result": 155000, "unit": "M⁻¹ s⁻¹"}, {"measurement": "Kd", "setting": "[6]", "result": 4.83, "unit": "nM"}, {"measurement": "koff", "setting": "[6]", "result": 0.00111, "unit": "s⁻¹"}, {"measurement": "kon", "setting": "[6]", "result": 230000, "unit": "M⁻¹ s⁻¹"}, {"measurement": "EC50", "setting": "[7]", "result": 5.2, "unit": "nM"}]}
